The list shows a part of the results.

The assay deals with HSkMC (human skeletal muscle cells). As to the kind of experiment: cytotoxicity call (relative viability < 0.9). To be noted: 10 µM.
For the molecule `C[C@H]1CN([C@@H](C)CO)C(=O)Cc2cc(NC(=O)Nc3cccc4ccccc34)ccc2O[C@H]1CN(C)C(=O)Nc1ccccc1`, the cytotoxicity call is “inactive”.

Consider `O=C(C[C@@H]1C[C@@H]2c3cc(NS(=O)(=O)c4ccc(F)cc4)ccc3O[C@@H]2[C@H](CO)O1)N1CCOCC1`, for which the cytotoxicity call is “inactive”.

Consider `Cc1noc(C)c1NC(=O)Nc1cccc2c1O[C@@H](CN(C)Cc1ccc(C(F)(F)F)cc1)[C@@H](C)CN([C@H](C)CO)C2=O`, for which the cytotoxicity call was “inactive”.

For the molecule `Cl.Clc1cccc(Cl)c1N=C1NCCN1`, the cytotoxicity call was “inactive”.

For the molecule `COc1ccc(S(=O)(=O)N[C@H]2C=C[C@H](CC(=O)NCCc3ccncc3)O[C@@H]2CO)cc1`, the cytotoxicity call was “inactive”.

In the case of `Cc1ccc(NC(=O)CC(C)C)cc1`, the cytotoxicity call was “inactive”.

On to `C[C@@H]1CN([C@@H](C)CO)C(=O)c2cccc(NC(=O)NC3CCCCC3)c2O[C@@H]1CN(C)Cc1ccc(C(=O)Nc2ccccc2N)cc1`, for which the cytotoxicity call is “inactive”.

On to `COc1ccc(C#Cc2ccc3c(c2)[C@H]2[C@H](CCN2C(=O)Nc2ccc(C(F)(F)F)cc2)[C@H](CO)N3C)cc1`, for which the cytotoxicity call is “inactive”.

As to `CN1CCN(C(=O)C[C@@H]2CC[C@@H]3[C@H](COc4ccc(NC(=O)c5cccs5)cc4C(=O)N3C)O2)CC1`, the cytotoxicity call was “inactive”.

As for `Nc1nc(=O)c2ncn([C@H]3C[C@H](O)[C@@H](CO)O3)c2[nH]1`, the cytotoxicity call was “inactive”.

Consider `COCC(=O)Nc1ccc2c(c1)C(=O)N(C)[C@H]1CC[C@H](CC(=O)NCc3ccccc3Cl)O[C@@H]1CO2`, for which the cytotoxicity call is “inactive”.

In the case of `COc1ccc2c3c([nH]c2c1)[C@@H](CO)N(C[C@]13CN(C1)S(=O)(=O)c1cccs1)C(=O)c1ccccc1`, the cytotoxicity call was “inactive”.

For the molecule `C[C@@H]1CCCCO[C@H](CN(C)C(=O)Nc2cccc3ccccc23)[C@@H](C)CN([C@H](C)CO)C(=O)c2cc(NC(=O)NC3CCCCC3)ccc2O1`, the cytotoxicity call is “inactive”.

Take `COc1cccc2cc(C(C)=O)oc12`: the cytotoxicity call was “inactive”.

As to `C[C@H]1CN([C@@H](C)CO)C(=O)c2cc(NC(=O)CCCN(C)C)ccc2O[C@H]1CN(C)S(=O)(=O)c1cn(C)cn1`, the cytotoxicity call was “inactive”.

For `O=C(NCCCl)N(CCCl)[N+][O-]`, the cytotoxicity call was “inactive”.

For `COc1ccc(NC(=O)Nc2cccc3c2O[C@@H](CN(C)C(=O)Nc2ccc(C(F)(F)F)cc2)[C@H](C)CN([C@@H](C)CO)C3=O)cc1`, the cytotoxicity call was “inactive”.

On to `O=C(C[C@@H]1CC[C@@H]2[C@H](COC[C@H](O)CN2C(=O)c2ccncc2)O1)NC1CCC1`, for which the cytotoxicity call was “inactive”.

With `C[C@H](CO)N1C[C@H](C)[C@H](CN(C)Cc2ccc(-c3ccccc3)cc2)Oc2ccc(NC(=O)C3CCCCC3)cc2CC1=O`, the cytotoxicity call was “inactive”.

On to `Cc1noc(C)c1NC(=O)Nc1ccc2c(c1)C(=O)N([C@H](C)CO)C[C@H](C)[C@H](CN(C)C(=O)Nc1ccc(F)cc1)OCCCC[C@H](C)O2`, for which the cytotoxicity call is “inactive”.

In the case of `COCC(=O)N1CC(=O)N2[C@H](CO)[C@H](c3ccc(C#Cc4cccnc4)cc3)[C@H]2C1`, the cytotoxicity call is “inactive”.

As for `COc1ccc(NC(=O)Nc2ccc3c(c2)C(=O)N([C@@H](C)CO)C[C@H](C)[C@H](CN(C)Cc2ccc(C(=O)Nc4ccccc4N)cc2)O3)cc1`, the cytotoxicity call is “inactive”.

`CCS(=O)(=O)Nc1ccc2c(c1)C(=O)N(C)C[C@@H](OC)[C@@H](C)CN(CCC(F)(F)F)[C@H](C)CO2`: the cytotoxicity call is “inactive”.

Consider `C[C@@H]1CCCCO[C@@H](CN(C)C(=O)CCC(F)(F)F)[C@@H](C)CN([C@H](C)CO)C(=O)c2cc(NC(=O)CCCCCC(=O)Nc3ccccc3N)ccc2O1`, for which the cytotoxicity call is “inactive”.

In the case of `C[C@H]1CCCCN1C(=O)CCS(=O)(=O)c1ccc2c(c1)n(C)c(=O)c(=O)n2C`, the cytotoxicity call is “inactive”.

Take `Cc1ccc(S(=O)(=O)N(C)C[C@@H]2Oc3ncc(C#Cc4ccccc4)cc3C(=O)N([C@H](C)CO)C[C@@H]2C)cc1`: the cytotoxicity call was “inactive”.

For the molecule `O=C(O)CCN1C(=O)c2ccncc2C1=O`, the cytotoxicity call is “inactive”.

In the case of `CO[C@H]1CN(C)C(=O)c2cc(NC(=O)Nc3ccccc3F)ccc2OC[C@H](C)N(CCC(F)(F)F)C[C@@H]1C`, the cytotoxicity call is “inactive”.

`Cc1ccc(-c2csc(-c3ccc(C(F)(F)F)cc3)n2)cc1`: the cytotoxicity call was “inactive”.

With `COc1ccc(CN(C)C[C@H]2OCCCC[C@@H](C)Oc3ccc(NC(=O)Nc4ccc5c(c4)OCO5)cc3C(=O)N([C@@H](C)CO)C[C@H]2C)cc1`, the cytotoxicity call is “inactive”.

Turning to `C[C@@H]1CN([C@@H](C)CO)C(=O)Cc2cc(NC(=O)Nc3ccc(C(F)(F)F)cc3)ccc2O[C@@H]1CN(C)S(C)(=O)=O`, the cytotoxicity call is “inactive”.

For the molecule `COc1ccc(S(=O)(=O)N(C)C[C@H]2Oc3c(NC(=O)c4ccncc4)cccc3C(=O)N([C@H](C)CO)C[C@H]2C)cc1`, the cytotoxicity call is “inactive”.

Take `O[C@H]1CCCC[C@@H]1O`: the cytotoxicity call was “inactive”.

As to `CN(C)CCCNC(=O)C[C@H]1CC[C@@H]2[C@H](COC[C@@H](O)CN2S(=O)(=O)c2ccc(Cl)cc2)O1`, the cytotoxicity call is “inactive”.

As for `O=C(O)CN(CCN(CC(=O)O)CC(=O)O)CC(=O)O`, the cytotoxicity call is “inactive”.

For the molecule `COc1ccc(CN(C)C[C@@H]2OCCCC[C@H](C)Oc3ccc(NC(=O)Nc4ccc(C(F)(F)F)cc4)cc3C(=O)N([C@@H](C)CO)C[C@@H]2C)cc1`, the cytotoxicity call was “active”.

With `Cc1ccc(S(=O)(=O)N(C)C[C@H]2Oc3ccc(NC(=O)CCCN(C)C)cc3C(=O)N([C@@H](C)CO)C[C@H]2C)cc1`, the cytotoxicity call was “inactive”.

As to `Cc1ccc(S(=O)(=O)Nc2ccc3c(c2)C(=O)N([C@@H](C)CO)C[C@@H](C)[C@@H](CN(C)S(C)(=O)=O)O3)cc1`, the cytotoxicity call was “inactive”.

Take `O=C1C[C@]2(c3ccc([N+](=O)[O-])cc3)C(=O)N(Cc3ccccc3)c3cc(CO)ccc3[C@H]2N1CC12CC3CC(CC(C3)C1)C2`: the cytotoxicity call was “inactive”.

Consider `Cc1noc(C)c1S(=O)(=O)Nc1ccc2c(c1)C(=O)N([C@@H](C)CO)C[C@@H](C)[C@H](CN(C)S(=O)(=O)c1ccc(Cl)cc1)O2`, for which the cytotoxicity call is “inactive”.

Values taken from the antibiotic and cytotoxicity screens of Wong et al. (2023).
